In all, about 48,000 compounds went through this assay and about 550 (1.1%) were called active. Another 4% or so got no clear call; they are omitted. No stated cut-off is given here; in the data, active means potency below about 15 µM; inconclusive means mostly about 16 µM to 33 µM; inactive means weaker than that. The list shows a part of the results.
Potency means the concentration at half of the fitted maximal effect.

UniProt P04062, sequence (P04062 whole entry, looked up): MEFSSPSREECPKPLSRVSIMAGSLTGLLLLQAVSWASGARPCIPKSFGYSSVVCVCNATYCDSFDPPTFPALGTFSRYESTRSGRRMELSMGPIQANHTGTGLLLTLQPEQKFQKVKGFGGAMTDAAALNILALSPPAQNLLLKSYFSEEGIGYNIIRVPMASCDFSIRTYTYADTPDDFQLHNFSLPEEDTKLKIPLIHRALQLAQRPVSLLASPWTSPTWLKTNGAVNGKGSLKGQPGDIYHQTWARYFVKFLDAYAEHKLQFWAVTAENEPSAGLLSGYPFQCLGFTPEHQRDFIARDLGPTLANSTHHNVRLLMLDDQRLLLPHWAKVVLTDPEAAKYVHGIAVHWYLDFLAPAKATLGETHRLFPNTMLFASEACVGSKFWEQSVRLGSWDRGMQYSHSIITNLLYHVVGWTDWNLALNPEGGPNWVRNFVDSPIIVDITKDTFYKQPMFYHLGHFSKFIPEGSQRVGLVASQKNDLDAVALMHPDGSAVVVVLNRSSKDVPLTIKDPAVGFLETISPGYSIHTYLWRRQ

The target of this assay is Lysosomal acid glucosylceramidase (Homo sapiens) (UniProt P04062). Put plainly: Glucocerebrosidase.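 Further: the screen sought inhibitors.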 The settings on record: purified enzyme, resorufin glucoside fluorescence (screen aimed at inhibitors), 20 min. The essentials:
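Wild-type enzyme at 0.2 nM final in 50mM citric acid/KH2PO4, 10mM sodium taurocholate, 0.01% tween-20, pH 5.9, with resorufin beta-D-glucopyranoside at 30 uM final. Compounds titrated, 20 min at RT, red fluorescence read; AC50 from titration.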
As to `N#Cc1ccccc1S(=O)(=O)N1CCN(c2ccc(S(=O)(=O)N3CCOCC3)cn2)CC1`, the Potency was inactive: > 76.9 µM.

Regarding `O=c1c2[nH]c3ccc(F)cc3c2ncn1C1CCCCC1`, the Potency is inactive: > 76.9 µM.

`Cc1ccc(C(=O)Cn2nnc(-c3ccccc3-n3cnnn3)n2)cc1`: the Potency was inactive: > 76.9 µM.

Take `O=C(C1CC1)N1CCc2cc(S(=O)(=O)N3CCCc4ccccc43)ccc21`: the Potency was inactive: > 76.9 µM. Turning to `CCOC(=O)CN1C(=O)C(C)(C)Oc2ccc(C(=O)Nc3ccccc3)cc21`, the Potency is inactive: > 76.9 µM. Take `COc1cc(SC)ccc1C(=O)Nc1ccon1`: the Potency was inactive: > 76.9 µM. As for `CC(C)OCCCNC(=O)c1cccs1`, the figure is inactive: > 76.9 µM; as for `COc1cccc(-n2nnnc2SCC(=O)N2CCCc3ccccc32)c1`, inactive: > 76.9 µM; as for `CCOC(=O)c1oc2c(O)c(O)ccc2c(=O)c1-c1nncn1-c1ccccc1`, inactive: > 76.9 µM. To `Cc1cccc(-n2c(N)cc(=O)nc2SCC(=O)Nc2ccccc2)c1` belongs inactive: > 76.9 µM. To `c1ccc(CC2CCN(c3nc4ccccc4n4nnnc34)CC2)cc1` belongs inactive: > 76.9 µM; to `O=C(Nc1ccncc1)C1(c2ccccc2)CCCC1`, inactive: > 76.9 µM. On to `COC(=O)c1cccc(S(=O)(=O)N(Cc2ccco2)Cc2cc3ccc(OC)cc3[nH]c2=O)c1`, for which the Potency was inactive: > 76.9 µM. To `CCOC(=O)N1CCC(Nc2c(Nc3ccc(C)c(C)c3)c(=O)c2=O)CC1` belongs inactive: > 76.9 µM.

Consider `CC(=O)c1ccc(N2CCN(S(=O)(=O)c3cccc(S(=O)(=O)N4CCOCC4)c3)CC2)cc1`, for which the Potency is inactive: > 76.9 µM. As for `CC1(C)NC(=O)N(CCCCOc2ccc3c(c2)CCC3)C1=O`, the figure is inactive: > 76.9 µM.

For the compound `CC(Sc1ccccc1)C(=O)Nc1ccc(S(=O)(=O)N2CCOCC2)cc1` (configuration not stated), the Potency was inactive: > 76.9 µM.

As to `O=C(CN1CCN(c2ccc(F)cc2)CC1)OCc1ccccc1`, the Potency is inactive: > 76.9 µM. For `COc1cccc(-c2nnc(SCC(=O)N3CCCC3=O)n2-c2ccccc2)c1`, the Potency was inactive: > 76.9 µM. To `C=CCn1cc(C(=O)OC)c(=O)c2cc(S(=O)(=O)N3CCC(C)CC3)ccc21` belongs inactive: > 76.9 µM.

As for `O=C(COc1ccc(Cl)cc1)Nc1ccccc1C(=O)NCc1ccco1`, the Potency is inactive: > 76.9 µM. Consider `Cn1c(NCc2cccc(Br)c2)nc2ccccc21`, for which the Potency was inactive: > 76.9 µM. Regarding `CCc1nnc(NC=C2C(=O)OC(C)(C)OC2=O)s1`, the Potency is inactive: > 76.9 µM. As for `Cc1nn(Cc2ccccc2Cl)c(C)c1NC(=O)C1C2CCC(O2)C1C(=O)O` (configuration not stated), the figure is inactive: > 76.9 µM; as for `O=C1CN(C(=O)CC2c3ccccc3-c3ccccc32)CC(=O)N1`, inactive: > 76.9 µM. As to `O=c1c2c(nc3nc(COc4ccccc4)[nH]n13)CCC2`, the Potency is inactive: > 76.9 µM.

Turning to `Cc1c(C(=O)O)oc2c1C(O)CC(C)(C)C2` (configuration not stated), the Potency is inactive: > 76.9 µM. As for `Cc1nc2c3c(-c4ccccc4)c(-c4ccccc4)oc3ncn2n1`, the figure is inactive: > 76.9 µM; as for `O=C(CN(C(=O)c1cc2c(s1)CCC2)C1CCCC1)NCc1cccs1`, inactive: > 76.9 µM; as for `Cc1ccc(NC(=O)Cn2nc(C)c3ccccc3c2=O)cc1F`, inactive: > 76.9 µM.

As to `OCCN1CCOCCN(CCO)CCOCC1`, the Potency was inactive: > 76.9 µM. As to `COC(=O)c1ccccc1NC(=O)CN(c1ccccc1)S(=O)(=O)N(C)C`, the Potency is inactive: > 76.9 µM.

In the case of `Cc1ccc(-c2ccc(S(=O)(=O)N3CCN(C)CC3)cc2)cc1`, the Potency entry is “inactive”.

For `CCS(=O)(=O)N1CCC(C(=O)Nc2cccc(C(C)=O)c2)CC1`, the Potency is inactive: > 76.9 µM.

As for `O=C(O)CC1SC(=O)N(Cc2ccccc2)C1=O` (configuration not stated), the Potency was inactive: > 76.9 µM.

As to `O=C(O)[C@@H]1CCCN1c1ncnc2sc3c(c12)CCC3`, the Potency is inactive: > 76.9 µM. To `Cc1ccc(S(=O)(=O)N2CCCC(C(=O)NCCCN3CCCCC3C)C2)cc1` (configuration not stated) belongs inactive: > 76.9 µM; to `COc1cccc(-c2nnc3n2N=C(c2cccc(Br)c2)CS3)c1`, inactive: > 76.9 µM.

Regarding `O=C(O)CCC(=O)N1CCN(c2nc3ccccc3s2)CC1`, the Potency was inactive: > 76.9 µM.

As to `CCCS(=O)(=O)N1CCCC(C(=O)N2CCOCC2)C1` (configuration not stated), the Potency was inactive: > 76.9 µM. Take `CN(C(=O)c1cc2sccc2n1C)C1CCCCC1`: the Potency is inactive: > 76.9 µM. As for `O=C(CN(C(=O)CCC(=O)Nc1ccccn1)c1ccc2c(c1)OCCO2)NCCc1ccccc1`, the figure is inactive: > 76.9 µM. As for `Cc1csc(=N)n1CC(=O)N1CCc2ccccc21`, the figure is inactive: > 76.9 µM; as for `COc1ccc(Br)cc1-c1noc(-c2ccncc2)n1`, inactive: > 76.9 µM; as for `CC(C)Cc1nc(SCC(=O)NCc2ccccc2)n[nH]1`, inactive: > 76.9 µM. To `O=c1nc2n(c3ncccc13)CCC2` belongs inactive: > 76.9 µM; to `CC1CCCCN1CCNC(=O)c1ccc2c(=O)n(CCc3ccccc3)c(=O)[nH]c2c1` (configuration not stated), inactive: > 76.9 µM; to `O=C(CN1C(=O)CSC1=O)Nc1ccc(F)c(F)c1F`, inactive: > 76.9 µM. On to `O=C(C1CCN(S(=O)(=O)c2cccnc2)CC1)N1CCN(C2CCCC2)CC1`, for which the Potency was inactive: > 76.9 µM. As for `O=C1CCCC2=C1C1(CCCC1)N=C(Nc1nc3ccccc3o1)N2`, the figure is inactive: > 76.9 µM; as for `C=CCn1c(N)c(C(=O)Nc2ccccc2OC)sc1=S`, inactive: > 76.9 µM. Turning to `O=c1cc(O)n(-c2ccccc2F)c(=S)[nH]1`, the Potency is inactive: > 76.9 µM.

With `N#Cc1nc(COc2ccc(Cl)cc2)oc1N1CCCCCC1`, the Potency was inactive: > 76.9 µM. To `COc1ccc(N(C(=O)C(C)C)S(=O)(=O)c2ccc3c(c2)n(C)c(=O)n3C)cc1` belongs inactive: > 76.9 µM. As for `CCOc1ccccc1Nc1ncccc1C(=O)N1CCCC1`, the figure is inactive: > 76.9 µM.

With `O=C1c2ccccc2C(=O)N1CCc1nn[nH]n1`, the Potency was inactive: > 76.9 µM. To `Cc1cc(C(=O)OCCO)c(C#N)c(N)n1` belongs inactive: > 76.9 µM; to `O=CN1CCN(C2CC(=O)N(c3ccc4c(c3)OCO4)C2=O)CC1` (configuration not stated), inactive: > 76.9 µM. To `COCCNC(=O)C(c1ccc(C)o1)N(C(=O)c1snc(C(N)=O)c1N)c1ccc(C)cc1` (configuration not stated) belongs inactive: > 76.9 µM; to `Cn1c(SCC(=O)NC(C)(C)C)nnc1-c1ccc(C(C)(C)C)cc1`, inactive: > 76.9 µM; to `CCC1=C/C(=C/N(C)c2ccccc2)C(=O)S1`, inactive: > 15.4 µM. Regarding `N=c1c(C(=O)NCC2CCCO2)cc2c(=O)n3ccccc3nc2n1Cc1cccnc1` (configuration not stated), the Potency is inactive: > 76.9 µM. As for `O=c1cc(NCC2CCCO2)[nH]c(=O)n1-c1ccc(Cl)cc1` (configuration not stated), the figure is inactive: > 76.9 µM; as for `NCC(O)COc1ccc2c(c1)OCO2` (configuration not stated), inactive: > 76.9 µM. For the compound `c1ccc(Oc2cc(-n3cccn3)ncn2)cc1`, the Potency is inactive: > 76.9 µM. As for `Cc1nn(C)cc1CN(C)C(=O)c1nn2c(c1Cl)NC(c1cccs1)CC2C(F)(F)F` (configuration not stated), the figure is inactive: > 76.9 µM; as for `CN(Cc1ccccc1)C(=O)COC(=O)c1ccc2c(c1)OCO2`, inactive: > 76.9 µM. To `O=C(COC(=O)c1ccccn1)Nc1nccs1` belongs inactive: > 76.9 µM; to `O=S(=O)(c1ccc(S(=O)(=O)N(Cc2ccc(F)cc2)C2CCCC2)cc1)N1CCCC1`, inactive: > 76.9 µM. As for `Cc1ccccc1-n1nc(C)c2cc(C(=O)NCc3cccnc3)sc21`, the figure is inactive: > 76.9 µM; as for `Cc1ccc(N(C(C)C(=O)Nc2ccccc2C(=O)N2CCOCC2)S(C)(=O)=O)cc1C` (configuration not stated), inactive: > 76.9 µM.

As to `O=C(CSc1nnc(CNc2ccccc2)o1)N1CCc2ccccc21`, the Potency is inactive: > 76.9 µM. `CC(C)(C)NC(=O)Cn1nnnc1-c1nonc1N`: the Potency is inactive: > 76.9 µM.

As to `CCOC(=O)C1CCCN(Cc2cc(Br)c(OC)cc2OC)C1` (configuration not stated), the Potency is inactive: > 76.9 µM.

On to `COc1ccc(C2(O)CCN(C(=O)NC3CCCCC3)CC2)cc1`, for which the Potency was inactive: > 76.9 µM.

On to `CC(=O)OCC(=O)NCc1ccc2c(c1)OCO2`, for which the Potency was inactive: > 76.9 µM.

Regarding `CCCCNS(=O)(=O)c1ccc(OC)c2ncccc12`, the Potency was inactive: > 76.9 µM. As to `COCCNc1nc(C(C)(C)C)nc2c1nnn2Cc1ccccc1Cl`, the Potency was inactive: > 76.9 µM. As for `COc1ccccc1-c1noc(CCC(=O)Nc2ccccc2Cl)n1`, the figure is inactive: > 76.9 µM. As for `COc1ccc(OC)c(S(=O)(=O)N(C)CC(=O)N2CCc3ccccc3C2)c1`, the figure is inactive: > 76.9 µM.

Turning to `CCn1c(=O)c(C(C)=O)nc2ccccc21`, the Potency was inactive: > 76.9 µM. As for `O=C(CN1C(=O)NC2(CCCC2)C1=O)Nc1nc(-c2ccc(F)cc2)cs1`, the figure is inactive: > 76.9 µM; as for `OC1(c2cccc(C(F)(F)F)c2)CCNCC1`, inactive: > 76.9 µM; as for `COc1cccc(-n2c(C)nc3c(cnn3-c3ccc(Cl)cc3)c2=O)c1`, inactive: > 76.9 µM. To `Cc1ccc(N=C2SCCCN2C(=O)c2ccco2)cc1Cl` belongs inactive: > 76.9 µM; to `Cc1nc2cc(C(=O)O)ccc2n1-c1ccc(F)cc1F`, inactive: > 76.9 µM.

Turning to `COc1cccc(-c2nnc(NC(=O)c3ccc(S(=O)(=O)N4CCOCC4)cc3)o2)c1`, the Potency is inactive: > 76.9 µM. As for `COc1cc(C2/C(=C(/O)c3ccc(F)cc3)C(=O)C(=O)N2CCCC(=O)O)ccc1O` (configuration not stated), the figure is inactive: > 76.9 µM. To `NC1=NC2(CCN(Cc3ccccc3)CC2)n2c(nc3ccccc32)N1` belongs active: 3.69 µM; to `CN(C)c1ccc(CN(C(=O)COc2ccc(F)cc2)C2CCS(=O)(=O)C2)cc1` (configuration not stated), inactive: > 76.9 µM; to `CCCC(=O)Nc1ccc(NC(=O)Cc2ccccc2)cn1`, inactive: > 76.9 µM. To `CCOc1c(CNCCNC(=O)c2nonc2N)cccc1OC` belongs inactive: > 76.9 µM.

The values above are taken from PubChem BioAssay AID360 (National Center for Advancing Translational Sciences (NCATS), 2006).
